About 230 (0.21%) of roughly 110,000 compounds showed an effect of 50% or more. Some of the results follow.
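Note: 30 min substrate incubation versus DMSO and 10 µM JCP410 controls.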

The target of this assay is DPAP1 (Plasmodium falciparum, UniProt Q8IIJ9). In words: primary screen, percent inhibition; read by cleavage of a fluorogenic dipeptide substrate; higher = more effect of the substance. Further details: species or system P. falciparum D10 trophozoite lysates; single well.
Sequence of DPAP1 (Q8IIJ9 whole entry, looked up): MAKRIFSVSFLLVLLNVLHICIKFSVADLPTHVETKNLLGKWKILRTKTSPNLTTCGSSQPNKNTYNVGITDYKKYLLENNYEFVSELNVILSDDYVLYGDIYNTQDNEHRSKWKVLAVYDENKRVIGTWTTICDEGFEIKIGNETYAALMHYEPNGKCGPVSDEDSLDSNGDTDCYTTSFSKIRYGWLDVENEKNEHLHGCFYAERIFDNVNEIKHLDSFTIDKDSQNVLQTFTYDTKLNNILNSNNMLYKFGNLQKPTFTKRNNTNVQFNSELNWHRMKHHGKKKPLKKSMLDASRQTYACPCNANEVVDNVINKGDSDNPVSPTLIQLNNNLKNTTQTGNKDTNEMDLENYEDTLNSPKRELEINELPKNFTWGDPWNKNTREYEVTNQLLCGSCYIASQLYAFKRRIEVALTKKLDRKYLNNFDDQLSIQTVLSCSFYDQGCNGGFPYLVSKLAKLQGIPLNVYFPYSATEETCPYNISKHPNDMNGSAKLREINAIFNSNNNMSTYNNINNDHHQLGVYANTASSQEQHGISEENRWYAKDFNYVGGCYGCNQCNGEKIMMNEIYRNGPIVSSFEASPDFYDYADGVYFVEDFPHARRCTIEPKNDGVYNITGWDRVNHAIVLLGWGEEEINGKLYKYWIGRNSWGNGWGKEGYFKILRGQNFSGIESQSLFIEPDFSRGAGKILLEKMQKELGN
For the compound `O=c1c(NCCCN2CCCCCC2)c(-c2ccccc2)c1=O`, the “% Inhibition @ 10 uM” value amounted to 4.1%.
In the case of `O=C(NCc1ccco1)c1ccc2c(c1)ncn2-c1ccc(OCc2ccccc2)cc1`, the “% Inhibition @ 10 uM” value was 7.3%.
As for `CC1C(O)CCC1(C(=O)O)c1ccccc1` (stereo not shown), the “% Inhibition @ 10 uM” value was -7.89%.
Regarding `COc1ccc(NC(C)CCc2ccc(O)cc2)cc1` (stereo not shown), the “% Inhibition @ 10 uM” value came to 1.29%.
Next, `CC(=O)Nc1ccc(NC(=O)COc2ccc(Br)cc2C)cc1`: 3.35%; `COC(=O)c1sc2nc(-c3ccccc3)nc(N)c2c1C`: 0.182%; `Cc1ccc(SCCC(=O)NC(C)C)cc1`: -2.21%.
The same measure for `CCc1ccccc1N(CC(=O)N(C)Cc1ccccc1)S(C)(=O)=O`: -0.69%.
As to `N=C1/C(=C\c2cc(Cl)c(O)c(Cl)c2)C(=O)N=C2SC(N3CCCC3)=NN12`, the “% Inhibition @ 10 uM” value worked out at 1.51%.
As for `CCOC(=O)c1c(C)c(C(=O)NCC2CCCO2)c(C)n1Cc1ccccc1` (stereo not shown), the “% Inhibition @ 10 uM” value is 0.0579%.
On to `CCN(CC)C(=O)C1CCCN(Cc2ccc(OC(F)(F)F)cc2)C1` (stereo not shown), for which the “% Inhibition @ 10 uM” value came out at 3.35%.
Next, `CCC(C)NC(=O)c1cnc(SC)nc1-c1ccccc1` (stereo not shown): 4.48%; `O=C(CN1C(=O)c2ccccc2Sc2ncccc21)NCCN1CCOCC1`: -5.68%; `COc1cccc(CNCc2cccn2-c2nnc(N3CCOCC3)s2)c1`: 2.44%.
The same measure for `O=C(CCN1C(=O)c2ccccc2C1=O)Nc1cccc(C(F)(F)F)c1`: -1.29%; for `COC(=O)[C@@]1(C)CC[C@]2(C)CC[C@]3(C)C(=CCC4[C@@]5(C)CCC(O)C(C)(C)C5CC[C@]43C)C2C1` (stereo partly shown): 41.2%.
As to `COCCCNC(=O)c1cnn2c(C)c(Cc3cccc(Cl)c3)c(C)nc12`, the “% Inhibition @ 10 uM” value worked out at 2.9%.
With `Cc1nn(Cc2ccc(F)cc2)c(C)c1NC(=O)c1ccccc1F`, the “% Inhibition @ 10 uM” value is recorded as -6.74%.
Regarding `COc1ccc(N(CC(=O)Nc2ccc(Cl)cc2)S(C)(=O)=O)cc1OC`, the “% Inhibition @ 10 uM” value is given as -5.37%.
Consider `Brc1ccc(CN2CCc3ccccc3C2)o1`, for which the “% Inhibition @ 10 uM” value amounted to 1.48%.
For the compound `CC(=O)c1c(C(C)=O)c(C)n(-c2cccc3cccnc23)c1C`, the “% Inhibition @ 10 uM” value is reported as -1.85%.
Regarding `Cn1c(=O)c2c(-c3ccc(Cl)cc3)n(C(CO)(CO)CO)cc2n(C)c1=O`, the “% Inhibition @ 10 uM” value is -3.12%.
As to `COc1ccc(/C=C/C2=NC(=C\c3cc(OC)ccc3OC)/C(=O)O2)cc1`, the “% Inhibition @ 10 uM” value is given as -7.59%.
Next, `Cc1ccc(C2=NS(=O)(=O)N(C)C(C(=O)NC3CCCCC3)=C2)cc1`: 2.32%; `c1cc(C23CC4CC(CC(C4)C2)C3)ccc1OCCN1CCOCC1`: 2.41%; `CCc1nnc(SCc2cc(=O)n3ccccc3n2)c2cc3sccc3n12`: 3.08%.
Consider `CCCN(C(C)=O)c1nc(-c2cccc(Cl)c2)cs1`, for which the “% Inhibition @ 10 uM” value is -2.99%.
On to `CCOC(=O)c1cnc(N2CCCC2)nc1C1CCNCC1`, for which the “% Inhibition @ 10 uM” value is -2.83%.
